No constants are given. Whether binding was seen depends on the method and setting. In cells and extracts the contact can be indirect. Some binding calls cover weakened binding; strength is not graded here.

Amino acid sequences for entries named in this document (tags omitted). A change or cut given only in a name is not applied to a line headed by its entry. Chains listed by the source or under a name are the forms on record and can include a tag or linker.
UniProt P24279: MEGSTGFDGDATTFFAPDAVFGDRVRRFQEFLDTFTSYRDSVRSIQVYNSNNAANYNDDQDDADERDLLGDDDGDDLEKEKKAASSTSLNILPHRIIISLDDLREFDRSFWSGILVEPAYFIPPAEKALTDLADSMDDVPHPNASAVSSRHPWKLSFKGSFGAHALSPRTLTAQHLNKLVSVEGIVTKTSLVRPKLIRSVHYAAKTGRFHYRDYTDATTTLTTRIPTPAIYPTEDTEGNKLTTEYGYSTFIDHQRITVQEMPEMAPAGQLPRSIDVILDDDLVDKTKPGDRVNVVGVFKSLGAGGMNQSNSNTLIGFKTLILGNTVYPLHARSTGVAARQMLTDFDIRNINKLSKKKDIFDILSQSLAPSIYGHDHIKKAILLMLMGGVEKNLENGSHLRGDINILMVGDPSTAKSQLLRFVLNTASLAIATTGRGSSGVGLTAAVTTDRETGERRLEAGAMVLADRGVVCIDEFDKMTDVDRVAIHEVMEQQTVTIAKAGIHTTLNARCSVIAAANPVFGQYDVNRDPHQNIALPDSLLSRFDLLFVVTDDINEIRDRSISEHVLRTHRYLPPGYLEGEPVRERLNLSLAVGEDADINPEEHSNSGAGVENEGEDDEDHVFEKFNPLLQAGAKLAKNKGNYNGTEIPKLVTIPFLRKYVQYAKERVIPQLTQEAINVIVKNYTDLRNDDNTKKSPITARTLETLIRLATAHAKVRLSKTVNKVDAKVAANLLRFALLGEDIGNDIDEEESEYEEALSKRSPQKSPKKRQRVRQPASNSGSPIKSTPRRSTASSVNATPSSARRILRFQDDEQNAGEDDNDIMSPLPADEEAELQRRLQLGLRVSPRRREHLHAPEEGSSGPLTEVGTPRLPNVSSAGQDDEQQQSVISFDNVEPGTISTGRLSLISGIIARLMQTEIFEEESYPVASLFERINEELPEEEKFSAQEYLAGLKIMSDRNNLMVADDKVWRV
UniProt Q07864: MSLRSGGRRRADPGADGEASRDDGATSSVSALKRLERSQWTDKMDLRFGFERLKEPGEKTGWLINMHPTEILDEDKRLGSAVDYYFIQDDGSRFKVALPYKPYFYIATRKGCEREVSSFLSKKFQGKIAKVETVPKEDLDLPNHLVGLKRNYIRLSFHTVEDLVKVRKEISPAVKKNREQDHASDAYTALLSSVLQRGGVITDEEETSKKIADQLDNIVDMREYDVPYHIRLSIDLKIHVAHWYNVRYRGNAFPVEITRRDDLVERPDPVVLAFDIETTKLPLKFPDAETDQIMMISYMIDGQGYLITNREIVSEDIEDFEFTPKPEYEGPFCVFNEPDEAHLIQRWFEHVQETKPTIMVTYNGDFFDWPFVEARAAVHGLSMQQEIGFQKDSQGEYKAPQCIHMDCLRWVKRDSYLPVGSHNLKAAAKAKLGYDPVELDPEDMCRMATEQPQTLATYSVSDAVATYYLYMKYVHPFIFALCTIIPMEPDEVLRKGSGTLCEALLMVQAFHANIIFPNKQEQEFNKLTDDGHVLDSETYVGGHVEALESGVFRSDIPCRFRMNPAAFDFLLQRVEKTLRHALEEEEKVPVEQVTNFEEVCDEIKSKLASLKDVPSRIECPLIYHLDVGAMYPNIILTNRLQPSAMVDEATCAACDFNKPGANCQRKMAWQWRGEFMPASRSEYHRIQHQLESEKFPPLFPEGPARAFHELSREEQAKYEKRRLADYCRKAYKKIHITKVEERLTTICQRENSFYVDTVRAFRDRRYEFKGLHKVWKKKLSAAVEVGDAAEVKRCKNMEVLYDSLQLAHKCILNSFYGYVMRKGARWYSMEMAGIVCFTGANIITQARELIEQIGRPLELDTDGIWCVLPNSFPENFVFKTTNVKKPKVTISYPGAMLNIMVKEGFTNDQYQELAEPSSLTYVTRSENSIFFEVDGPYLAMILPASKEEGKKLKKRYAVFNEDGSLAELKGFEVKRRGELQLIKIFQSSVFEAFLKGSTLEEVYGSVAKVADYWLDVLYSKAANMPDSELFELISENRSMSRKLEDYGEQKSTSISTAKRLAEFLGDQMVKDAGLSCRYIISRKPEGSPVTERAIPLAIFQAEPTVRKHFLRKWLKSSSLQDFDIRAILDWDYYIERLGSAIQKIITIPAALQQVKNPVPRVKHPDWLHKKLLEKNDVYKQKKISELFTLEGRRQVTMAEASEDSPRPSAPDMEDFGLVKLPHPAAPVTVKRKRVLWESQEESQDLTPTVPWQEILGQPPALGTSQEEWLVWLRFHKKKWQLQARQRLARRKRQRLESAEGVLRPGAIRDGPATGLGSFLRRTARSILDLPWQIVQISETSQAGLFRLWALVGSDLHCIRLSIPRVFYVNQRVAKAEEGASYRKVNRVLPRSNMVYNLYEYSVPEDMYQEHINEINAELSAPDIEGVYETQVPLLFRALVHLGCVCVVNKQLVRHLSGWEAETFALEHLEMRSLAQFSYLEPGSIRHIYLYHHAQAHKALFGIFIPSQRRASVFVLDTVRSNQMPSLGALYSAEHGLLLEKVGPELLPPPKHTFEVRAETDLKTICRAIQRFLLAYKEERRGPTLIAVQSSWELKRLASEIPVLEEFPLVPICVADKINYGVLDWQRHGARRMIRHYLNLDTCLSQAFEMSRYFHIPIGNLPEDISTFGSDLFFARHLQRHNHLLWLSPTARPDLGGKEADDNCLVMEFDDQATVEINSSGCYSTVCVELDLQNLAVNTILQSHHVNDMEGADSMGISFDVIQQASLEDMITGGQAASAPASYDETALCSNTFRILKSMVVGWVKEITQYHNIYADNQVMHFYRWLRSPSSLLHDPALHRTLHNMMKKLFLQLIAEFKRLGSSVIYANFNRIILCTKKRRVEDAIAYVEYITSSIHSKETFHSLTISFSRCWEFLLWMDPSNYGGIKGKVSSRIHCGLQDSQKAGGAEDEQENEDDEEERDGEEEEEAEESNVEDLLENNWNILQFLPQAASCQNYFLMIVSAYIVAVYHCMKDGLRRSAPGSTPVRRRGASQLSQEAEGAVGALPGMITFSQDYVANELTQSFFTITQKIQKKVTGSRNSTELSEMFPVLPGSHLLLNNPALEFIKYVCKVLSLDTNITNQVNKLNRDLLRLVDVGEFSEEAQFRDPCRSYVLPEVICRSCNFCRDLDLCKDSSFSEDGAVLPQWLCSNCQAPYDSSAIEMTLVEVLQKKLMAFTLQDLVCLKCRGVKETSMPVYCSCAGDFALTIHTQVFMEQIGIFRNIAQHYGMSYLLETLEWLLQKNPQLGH
POLE1 pole1-5A (pole1 315-AAIAAFA-321) with an N-terminal GFP tag (Q07864, form named): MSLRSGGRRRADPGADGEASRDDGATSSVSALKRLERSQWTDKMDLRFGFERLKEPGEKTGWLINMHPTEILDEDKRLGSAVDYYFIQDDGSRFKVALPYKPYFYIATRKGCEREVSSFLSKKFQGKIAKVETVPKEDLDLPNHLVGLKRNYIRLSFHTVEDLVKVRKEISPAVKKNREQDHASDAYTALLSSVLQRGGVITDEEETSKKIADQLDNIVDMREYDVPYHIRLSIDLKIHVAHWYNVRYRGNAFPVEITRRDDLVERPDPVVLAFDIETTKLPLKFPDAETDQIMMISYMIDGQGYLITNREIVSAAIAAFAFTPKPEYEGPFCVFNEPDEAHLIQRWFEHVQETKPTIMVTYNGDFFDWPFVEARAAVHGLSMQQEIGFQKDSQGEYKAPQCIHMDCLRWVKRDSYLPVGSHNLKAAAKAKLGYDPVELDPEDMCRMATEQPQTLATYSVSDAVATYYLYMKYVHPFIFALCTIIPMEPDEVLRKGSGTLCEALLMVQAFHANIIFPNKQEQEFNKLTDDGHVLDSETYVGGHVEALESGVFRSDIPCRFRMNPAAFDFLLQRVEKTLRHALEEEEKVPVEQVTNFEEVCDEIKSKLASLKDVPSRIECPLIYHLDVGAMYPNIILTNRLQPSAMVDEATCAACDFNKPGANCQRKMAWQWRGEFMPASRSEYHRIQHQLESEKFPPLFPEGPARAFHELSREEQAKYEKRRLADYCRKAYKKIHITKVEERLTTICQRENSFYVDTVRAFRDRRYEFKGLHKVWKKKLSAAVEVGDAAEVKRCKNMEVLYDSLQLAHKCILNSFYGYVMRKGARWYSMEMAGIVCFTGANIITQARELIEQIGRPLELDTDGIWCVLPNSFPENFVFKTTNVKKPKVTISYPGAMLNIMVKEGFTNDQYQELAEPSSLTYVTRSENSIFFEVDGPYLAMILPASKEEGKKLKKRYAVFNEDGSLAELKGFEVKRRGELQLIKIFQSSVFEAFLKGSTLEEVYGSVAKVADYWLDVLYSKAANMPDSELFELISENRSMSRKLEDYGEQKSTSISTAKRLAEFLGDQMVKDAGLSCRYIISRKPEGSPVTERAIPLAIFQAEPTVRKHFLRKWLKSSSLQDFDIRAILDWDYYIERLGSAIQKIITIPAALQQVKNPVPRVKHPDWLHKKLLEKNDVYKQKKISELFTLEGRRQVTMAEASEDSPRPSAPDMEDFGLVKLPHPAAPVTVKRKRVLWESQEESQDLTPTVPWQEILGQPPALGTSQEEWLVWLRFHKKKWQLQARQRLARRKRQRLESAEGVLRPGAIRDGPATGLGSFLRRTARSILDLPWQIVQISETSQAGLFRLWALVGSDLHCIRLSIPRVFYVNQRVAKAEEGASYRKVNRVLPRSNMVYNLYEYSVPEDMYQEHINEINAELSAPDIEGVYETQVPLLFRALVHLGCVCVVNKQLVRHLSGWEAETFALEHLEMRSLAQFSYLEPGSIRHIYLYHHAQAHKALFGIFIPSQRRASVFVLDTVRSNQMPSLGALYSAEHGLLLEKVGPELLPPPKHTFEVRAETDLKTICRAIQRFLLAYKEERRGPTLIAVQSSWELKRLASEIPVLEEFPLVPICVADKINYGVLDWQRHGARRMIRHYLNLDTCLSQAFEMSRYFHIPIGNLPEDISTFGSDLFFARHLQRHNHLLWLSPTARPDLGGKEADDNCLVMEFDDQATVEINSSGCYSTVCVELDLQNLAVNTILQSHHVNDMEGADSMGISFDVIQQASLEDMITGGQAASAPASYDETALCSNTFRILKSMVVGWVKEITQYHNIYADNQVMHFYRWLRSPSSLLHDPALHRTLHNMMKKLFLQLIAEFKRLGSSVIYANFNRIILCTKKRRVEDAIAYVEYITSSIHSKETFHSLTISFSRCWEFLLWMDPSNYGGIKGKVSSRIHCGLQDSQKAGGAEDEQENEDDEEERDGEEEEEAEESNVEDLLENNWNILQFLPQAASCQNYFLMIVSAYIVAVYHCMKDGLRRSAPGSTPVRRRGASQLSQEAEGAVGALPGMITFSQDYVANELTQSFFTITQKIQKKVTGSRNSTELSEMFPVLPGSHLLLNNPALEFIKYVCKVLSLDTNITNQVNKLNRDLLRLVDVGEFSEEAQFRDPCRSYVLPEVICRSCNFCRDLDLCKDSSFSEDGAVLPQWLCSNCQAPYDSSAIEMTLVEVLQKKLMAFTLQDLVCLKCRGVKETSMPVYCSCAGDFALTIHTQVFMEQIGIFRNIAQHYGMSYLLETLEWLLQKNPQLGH
UniProt Q8WVB6: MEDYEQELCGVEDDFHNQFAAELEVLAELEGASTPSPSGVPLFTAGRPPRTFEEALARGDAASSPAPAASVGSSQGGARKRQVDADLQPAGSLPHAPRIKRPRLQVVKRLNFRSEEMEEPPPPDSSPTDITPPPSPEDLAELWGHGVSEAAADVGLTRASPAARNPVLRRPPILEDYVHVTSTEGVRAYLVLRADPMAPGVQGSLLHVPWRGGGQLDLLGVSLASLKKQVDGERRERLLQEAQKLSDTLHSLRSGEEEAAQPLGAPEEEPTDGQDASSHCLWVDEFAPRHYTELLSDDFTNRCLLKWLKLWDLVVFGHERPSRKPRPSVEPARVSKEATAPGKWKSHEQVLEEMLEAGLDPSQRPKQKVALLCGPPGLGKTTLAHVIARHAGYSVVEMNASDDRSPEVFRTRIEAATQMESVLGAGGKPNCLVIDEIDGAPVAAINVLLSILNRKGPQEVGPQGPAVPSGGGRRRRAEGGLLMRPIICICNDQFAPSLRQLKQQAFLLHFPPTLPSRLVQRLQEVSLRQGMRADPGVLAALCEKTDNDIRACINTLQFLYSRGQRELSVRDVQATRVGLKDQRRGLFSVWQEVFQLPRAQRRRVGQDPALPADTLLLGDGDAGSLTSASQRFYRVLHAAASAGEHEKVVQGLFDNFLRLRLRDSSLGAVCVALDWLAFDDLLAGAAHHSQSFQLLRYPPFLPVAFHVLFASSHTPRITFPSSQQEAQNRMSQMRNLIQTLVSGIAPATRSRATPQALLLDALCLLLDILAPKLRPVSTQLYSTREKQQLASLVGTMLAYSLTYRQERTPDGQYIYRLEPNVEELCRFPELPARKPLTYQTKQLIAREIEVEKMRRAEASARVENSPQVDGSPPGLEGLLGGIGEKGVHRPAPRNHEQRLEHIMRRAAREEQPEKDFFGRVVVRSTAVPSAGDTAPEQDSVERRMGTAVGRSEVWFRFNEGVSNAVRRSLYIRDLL

The target of assay [1] is Mcm3 with a TAP tag (S. cerevisiae (endogenous in W303-1a derived strains)) (UniProt P24279). The experiment in a line: co-IP; Mcm3-TAP cells released into S phase for 30 min and treated with formaldehyde; anti-TAP beads; immunoblotting; also following replication stress (Supplementary Figure S4E).
Assay [2] has as its target POLE1 pole1-5A (pole1 315-AAIAAFA-321) with a C-terminal GFP tag (human) (UniProt Q07864). The experiment in a line: co-IP; HeLa cells 48 h after transient transfection of GFP-tagged POLE1; nuclease-treated lysate (50 mM HEPES–KOH pH 7.5, 100 mM KAc, 0.1% Igepal); GFP TrapA beads; western blot. On the technique in general: Immunoblotting shows a protein as a band on a membrane.

Assay [3] has as its target POLE1 pole1-5A (pole1 315-AAIAAFA-321) with an N-terminal GFP tag (human) (UniProt Q07864). The assay is described as above.
For assay [4], the target named is POLE1 with a C-terminal GFP tag, wild type (human) (UniProt Q07864). The description is as above.
Assay [5] has as its target POLE1 with an N-terminal GFP tag, wild type (human) (UniProt Q07864). The assay is described as above.

Turning to PCNA (from UniProt P15873 1-258), the binding result in assay [1] is listed as “binds”.

As to “Ctf18 (human, endogenous in HeLa cells) (from UniProt Q8WVB6 1-975)”, the binding entry is listed as “no binding” in assay [2], “no binding” in assay [3], “binds” in assay [4] and “binds” in assay [5]. Consider “Ctf18-RFC from the ctf18-RAA strain (ctf18 V730R, R731A, K732A) (from UniProt P49956 1-741; P25559 1-380; P38877 1-133; P40348 1-353; P38629 1-340; P40339 1-323; P38251 1-354) (complex)”, for which the binding result in assay [1] is “binds weakly”. Take “Ctf18-RFC from the ctf18-RAA dcc1WH3Δ strain (from UniProt P49956 1-741; P25559 1-318; P38877 1-133; P40348 1-353; P38629 1-340; P40339 1-323; P38251 1-354) (complex)”: in assay [1], the binding result is given as “binds weakly”.

The values are drawn from paper PMC7641331, “Ctf18-RFC and DNA Pol ϵ form a stable leading strand polymerase/clamp loader complex required for normal and perturbed DNA replication” (Nucleic Acids Research, 2019).
